Measurements from PubChem BioAssay AID1159614 (National Center for Advancing Translational Sciences (NCATS), 2016).
Screen size: about 45,000 compounds; about 65 (0.1%) were called active. Calls follow the shape of the dose curve; as a rule, active = well fitted activation curve with a large enough effect; inconclusive = small, poorly fitted or top-dose-only effect; inactive = no such curve, though single readings can be large or run the other way. This is one part of the list.

What follows are molecules tested against Galactocerebrosidase (Homo sapiens) (UniProt P54803) (assay: A Novel Cell-Based Assay to Identify Small Molecules for B -Galactocerebrosidase). Conditions: 145M-Twi-hGALC-G270D cells (Twitcher mouse brain line with human GALC G270D), HMU-beta-Gal fluorescence, 48 h; series mostly up to 57.5 µM; activation: at the top concentration.
Sequence of UniProt P54803 (P54803 whole entry, looked up): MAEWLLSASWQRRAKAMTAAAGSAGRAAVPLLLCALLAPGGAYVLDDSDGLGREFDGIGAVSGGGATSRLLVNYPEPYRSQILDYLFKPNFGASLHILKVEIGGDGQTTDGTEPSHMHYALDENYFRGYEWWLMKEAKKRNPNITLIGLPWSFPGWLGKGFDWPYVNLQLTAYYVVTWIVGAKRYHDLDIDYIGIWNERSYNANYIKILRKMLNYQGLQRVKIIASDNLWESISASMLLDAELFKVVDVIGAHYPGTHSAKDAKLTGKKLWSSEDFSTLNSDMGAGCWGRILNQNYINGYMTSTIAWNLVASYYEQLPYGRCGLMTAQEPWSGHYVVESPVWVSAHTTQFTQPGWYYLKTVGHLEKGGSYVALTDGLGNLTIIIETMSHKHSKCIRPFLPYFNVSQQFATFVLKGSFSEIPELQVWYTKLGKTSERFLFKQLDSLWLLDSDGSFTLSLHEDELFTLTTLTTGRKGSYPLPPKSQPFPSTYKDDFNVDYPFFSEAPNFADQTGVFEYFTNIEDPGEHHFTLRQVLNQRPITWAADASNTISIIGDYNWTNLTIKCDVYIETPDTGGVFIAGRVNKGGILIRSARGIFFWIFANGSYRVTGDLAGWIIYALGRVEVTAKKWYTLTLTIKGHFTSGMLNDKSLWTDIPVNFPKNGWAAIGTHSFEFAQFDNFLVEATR
Outline: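 Live 145M-Twi cells (Twitcher mouse brain-derived, GALC-null) stably expressing human GALC-G270D, with a wild-type GALC line, were compound-treated. Residual GALC activity was then read as fluorescence from 0.1 mM final HMU-β-gal at pH 5.2; higher signal means activation.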
Also: 0% is about no effect; nearly all actives have a fitted effect of over 65% in size.

activation, inactive:
CC1=C(c2ccc(Cl)cc2)S(=O)(=O)N=C1N1CCN(c2cccc(C)c2)C(C)C1 (centres undefined) -2.48%, COC(=O)CNC(c1ccccc1)c1cc(Br)ccc1NC(=O)c1cc(OC)c(OC)c(OC)c1 (centres undefined) -15%, COC(=O)c1ccc(OC)c(Cn2c(=O)n(-c3cccc(Cl)c3)c(=O)c3c2c2cc(C)ccc2n3C)c1 6.94%, CCc1ccc(NC(=O)CCS(=O)(=O)c2ccc3c(c2)oc(=O)n3C)cc1 -13.5%, CCOC(=O)c1c(-c2ccc(C)cc2)csc1NC(=O)c1ccc(C(C)(C)C)cc1 1.85%, Cc1ccc(-n2c(SCc3nc(-c4ccccc4C)no3)nnc2-c2ccncc2)cc1C -20.8%, COC(=O)c1c(NC(=O)c2ccc(S(=O)(=O)N3CCCCC3)cc2)sc2c1CCN(C)C2 4.49%, COc1ccc(CCNC(=O)CCCn2c(=O)c3ccccc3n(CC(=O)Nc3c(C)cc(C)cc3C)c2=O)cc1OC -4.1%, C[C@@H]1C[C@H]2[C@@H]3CCC4=CC(=O)C=C[C@]4(C)[C@@]3(F)[C@@H](O)C[C@]2(C)[C@@]1(O)C(=O)COC(=O)c1ccncc1 -5.48%, Cc1ccc(O)c(NC(=O)CCS(=O)(=O)c2nc(-c3ccc4c(c3)OCO4)cc(C(F)(F)F)n2)c1 -22.9%, COc1ccc(S(=O)(=O)N(CC(=O)Nc2cccnc2)c2ccc(C)cc2)cc1OC -8.59%, COc1cc2c(=O)n(CCC(=O)NCC3CCCO3)c(=O)n(CC(=O)Nc3ccc(F)cc3)c2cc1OC (centres undefined) 1.9%, CCOc1ccccc1CNC(=O)c1cc(-c2ccc(C)c(C)c2)nc2ccccc12 6.53%, CCn1c(CN2CCCCC2)nc2cc(NC(=O)c3ccc([N+](=O)[O-])cc3)ccc21 -9.88%, CCOc1ccccc1NC(=O)COc1ccc(S(=O)(=O)NC2CCCCC2)cc1 -11%, Cc1ccc(-n2nnc(-c3nsc(NC(=O)c4ccc(C)c(C)c4)n3)c2C)cc1 13.9%, O=c1[nH]c(=O)n([C@H]2C[C@H](O)[C@@H](CO)O2)cc1I -8.47%, CCc1ccc(CNC(=O)CCn2c(=O)c3cccn3c3ccc(F)cc32)cc1 -9.91%, Cc1ccc(C(=O)Nc2nc(-c3ccccc3)ns2)cc1 -24.6%, CCn1c(=O)c2sccc2n2c(CCC(=O)Nc3ccc(OC)c(Cl)c3)nnc12 -8.26%, Cc1ccc(NC(=O)Cn2nnc(C(=O)NCCc3ccccc3)c2N)cc1C -15%, Cc1oc2ncn(C)c(=O)c2c1C(=O)NCCCN(Cc1ccccc1)C(C)C -6.5%, CC(C)Oc1ccc(CNC(=O)C2CCN(c3nc4ccccc4n(C)c3=O)CC2)cc1 -8.12%, CCc1ccc(C2NC(=O)c3[nH]nc(-c4cccc(OC)c4)c32)cc1 (centres undefined) -8.94%
